Hit rate of the full screen: of about 150,000 compounds, about 540 (0.36%) showed an effect of 50% or more. This is one part of the list.

Experimental findings from ChEMBL document CHEMBL4888484, “Replenishing the malaria drug discovery pipeline: Screening and hit evaluation of the MMV Hit Generation Library 1 (HGL1) against asexual blood stage Plasmodium falciparum ,using a nano luciferase reporter read-out” (2022) are described below.

For the assay, the system named is Plasmodium falciparum. In words: Primary screen in NF54 nanoGlo assay, in single point, at 2uM, 72h; a lower Z score goes with more inhibition. It is filed as functional, Erythrocyte. The note with it: timepoint 72 hour.

Consider `Cc1cnc(NC(=O)[C@H]2CC2(F)F)s1`, for which the “% Inhibition” value was found to be 8% and the Z score was -1.02.
Consider `Cc1cc(CN2CCCn3nc(CN4CC[C@H](F)C4)cc3C2)oc1C`, for which the “% Inhibition” value is 12% and the Z score is -1.46.
The matching figures for `CCOC1(OCC)[C@@H](c2ccccc2)C(C#N)(C#N)C1(OCC)OCC`: -33% and 3.83.
Take `C=CCNC(=O)c1ncc(Br)cc1Br`: the “% Inhibition” value is given as -11% and the Z score was 1.29.
Consider `CC(NC(=O)N1CCC[C@@H]1CO)c1cccc(-n2cccn2)c1` (some centres undefined), for which the “% Inhibition” value stood at 5% and the Z score is recorded as -0.74.
Consider `O=C(NC1CCOCC1)c1ccc(NCc2cccc(F)c2F)cc1`, for which the “% Inhibition” value is on record as -5% and the Z score is 0.46.
The matching figures for `O=C(Cn1c(=O)ccc2cc(S(=O)(=O)N3CCCC3)ccc21)NCc1ccco1`: -1% and 0.25.
The matching figures for `COC[C@@H](c1ccccn1)N(C)C(=O)CN1CCCCC1=O`: -16% and 2.22.
The matching figures for `O=c1c2c(ncn1C[C@H]1CCC3(CCCCC3)O1)CCC2`: -1% and 0.12.
For the compound `CC(C)(C)OC(=O)N1CCC(N(CCCO)Cc2ccccn2)CC1`, the “% Inhibition” value is reported as -7% and the Z score was found to be 1.02.
As for `CCCc1cc(=O)n(-c2ccc(C(=O)N(C)C[C@H]3CC(=O)N(CC)C3)cc2)[nH]1`, the “% Inhibition” value is reported as -11% and the Z score was 1.99.
Take `C[C@@H](Cc1ccc2c(c1)OCO2)CN1CCC2(CC1)N=C(N(C)C)NC2=O`: the “% Inhibition” value was -14% and the Z score stood at 2.46.
The matching figures for `COc1cccc2nc(C[C@H]3CN(C(=O)CC(C)C)CC[C@H]3CC(=O)O)[nH]c12`: -11% and 1.37.
Regarding `CC(C)Cn1ccnc1NC(=O)Cc1cncc(O)c1`, the “% Inhibition” value is reported as 5% and the Z score is -0.95.
The matching figures for `COc1ccc(OC)c(-c2csc(NC(=O)CCCOc3ccccc3)n2)c1`: -13% and 1.33.
Regarding `O=C(CCC1CCN(C(=O)c2cccc(F)c2O)CC1)NC1CC1`, the “% Inhibition” value is -15% and the Z score is 1.45.
For `Cc1noc(C)c1CS(=O)(=O)CC(=O)N[C@@H](C)c1ccccc1`, the “% Inhibition” value was 8% and the Z score was -1.04.
On the same counts, the results for `COc1ccc2[nH]c3c(c2c1)CCN(C(=O)NC1CCCC1)[C@@H]3c1ccc(C)cc1` are 18% and -2.12.
On the same counts, the results for `CC(C)NS(=O)(=O)c1cc(C#N)ccc1N1CC[C@H](N(C)C)C1` are -10% and 1.01.
`Cc1ccc(NC(=O)N2CCCCCCN(C)C(=O)CC2)cc1C`: the “% Inhibition” value is -4% and the Z score came to 0.7.
The matching figures for `c1ccc([C@@H](NCc2cnc3n2CCCC3)c2nnc[nH]2)cc1`: -1% and 0.13.
On the same counts, the results for `Cc1ccc(C(=O)NC2CCC3(CC2)C[C@@H]3N)c(C(C)C)n1` (some centres undefined) are 4% and -0.62.
The matching figures for `Cc1ccnc2nc(C(=O)N(C)c3ccc(Cl)cn3)nn12`: 24% and -1.23.
`Cc1ccc(S(=O)(=O)NC(=O)C2CC2C)cn1` (centres undefined): the “% Inhibition” value was -5% and the Z score was 0.68.
The matching figures for `COc1cc2c(cc1OC)CN(C(=O)CN(C1CCCC1)C1CCCC1)CC2`: 0% and 0.07.
`Cc1ccc(-c2noc(CCNC(=O)[C@@H](C)Cn3cncn3)n2)cc1`: the “% Inhibition” value is -7% and the Z score came out at 1.43.
On the same counts, the results for `Cn1nccc1[C@@H]1CN(C(=O)Nc2nsc3ccccc23)CCO1` are -5% and 0.53.
For `CCc1nc(C)c(C(=O)NC[C@H](C)c2nc(C)cs2)o1`, the “% Inhibition” value is given as -9% and the Z score amounted to 1.35.
Consider `Cc1ccc(C2CN(C(=O)c3ccc(F)cc3)CC2CN(C)C2CCCCC2)cc1` (centres undefined), for which the “% Inhibition” value is -13% and the Z score was determined as 2.06.
The matching figures for `CC(C)c1ccc(CN2CCCN(c3ccc(NC(=O)c4ccccc4Cl)cn3)CC2)cc1`: -5% and 0.47.
On the same counts, the results for `C[C@@H](CCc1cccc(F)c1)C(=O)Nc1nc(=O)c2cnn(C)c2[nH]1` are -6% and 0.8.
`CCCn1nc(C(=O)N(CC)CC(=O)Nc2ccc3c(c2)OCCO3)ccc1=O`: the “% Inhibition” value is -11% and the Z score stood at 1.25.
On the same counts, the results for `Cc1ccc(CC(=O)N2C[C@@H](N)[C@H](c3ccnn3C)C2)cc1` are -2% and 0.42.
The matching figures for `O=C(c1ccc(F)cc1)N1CC[C@H](OCc2ccccc2)C1`: -18% and 2.05.
The matching figures for `O=C(Nc1ncc(Cc2cc(C(F)(F)F)cc(C(F)(F)F)c2)s1)c1ccoc1`: -11% and 1.03.
For the compound `CC(C)(C(=O)NCc1cccnc1-n1ccnc1)C1CCCC1`, the “% Inhibition” value was 6% and the Z score is listed as -0.96.
The matching figures for `CC1(C)CN([C@@H](CNc2ccc(C(=O)O)nn2)c2ccc(Cl)cc2)CCO1`: -16% and 2.33.
For `CCOC1CC(O)(CNC(=O)c2cc(F)ccc2C)C1` (centres undefined), the “% Inhibition” value stood at 13% and the Z score was -1.66.
On the same counts, the results for `COc1ccc(C2=NN(C(=O)CN3CCOCC3)[C@H](c3ccc(C)cc3C)C2)cc1` are -5% and 0.66.
With `Cc1oc(-c2ccno2)cc1S(=O)(=O)N1CCC[C@H]1c1nc(C(C)C)no1`, the “% Inhibition” value is given as -3% and the Z score was determined as 0.48.
Consider `CC1CCCN(C(=O)CC2NC(=O)N(c3ccc(F)cc3)C2=O)C1` (centres undefined), for which the “% Inhibition” value is -9% and the Z score was 0.82.
As for `CCOc1ccccc1OCc1ncnn1C`, the “% Inhibition” value was found to be 4% and the Z score is on record as -0.56.
